Test results taken from the supplement of paper PMC12217912.
This is one part of the list. The full chains were built here from the parent and the listed change. Inactive controls read about 0.05.

B1: TEV protease; numbered along this chain (parent)
chain: MGESLFKGPRDYNPISSSICHLTNESDGHTTSLYGIGFGPFIITNKHLFRRNNGTLVVQSLHGVFKVKDTTTLQQHLVDGRDMIIIRMPKDFPPFPQKLKFREPQREERICLVTTNFQTKSMSSMVSDTSCTFPSGDGIFWKHWIQTKDGQCGSPLVSTRDGFIVGIHSASNFTNTNNYFTSVPKNFMELLTNQEAQQWVSGWRLNADSVLWGGHKVFMVKPEEPFQPVKEATQL

Variants of: B1
Experiment: raw area under fraction-flipped curve 0-4 h after induction (AUC4h, not background-subtracted), DNA-recorder readout of cleavage of the substrate (dimensionless); higher = more cleavage of the substrate by the protease variant
Settings: temperature: 34 °C; time window: 0-4 h after rhamnose induction
Experimental: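 In vivo DNA recorder in E. coli TOP10(DE3) ΔrhaA at 34 °C. Each TEVp single-site mutant (parent TEVp 0) is paired with a single-site variant of the 7-mer TEVs (canonical ENLYFQ|S). The substrate sits between flexible linkers in a Bxb1-sfGFP-TEVs-SsrA fusion, so cleavage stabilises Bxb1 and speeds flipping of a recombination array, read by NGS. The value is the raw area under the fraction-flipped curve over 0-4 h after rhamnose induction (AUC4h), with ≥20 reads per time point. It is not background-subtracted; inactive controls average about 0.047.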
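Note: Bxb1 expression induced with 0.2% (w/v) L-rhamnose at OD600 near 0.5, cultures sampled hourly, flipped fraction per protease–substrate barcode pair counted by paired-end Illumina sequencing.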

Variant | area with substrate ENAYFQS | area with substrate ENCYFQS | area with substrate ENDYFQS | area with substrate ENEYFQS | area with substrate ENFYFQS | area with substrate ENGYFQS | area with substrate ENHYFQS | area with substrate ENKYFQS | area with substrate ENMYFQS | area with substrate ENNYFQS | area with substrate ENPYFQS | area with substrate ENQYFQS | area with substrate ENRYFQS | area with substrate ENSYFQS | area with substrate ENTYFQS | area with substrate ENVYFQS | area with substrate ENYYFQS | area with substrate ENIYFQS | area with substrate ENWYFQS
N13T | 0.0583 | 0.0781 | 0.051 | 0.0658 | 0.0717 | 0.0702 | 0.0581 | 0.063 | 0.08 | 0.051 | 0.0498 | 0.0633 | 0.0539 | 0.0677 | 0.0824 | 0.0595 | 0.0128 |  | 
N13S | 0.0623 |  | 0.0654 | 0.077 | 0.0653 | 0.059 | 0.0391 | 0.0535 | 0.0836 | 0.0601 | 0.0581 | 0.0592 | 0.0523 | 0.0581 | 0.0662 | 0.0697 | 0.0622 | 0.0833 | 
N13V | 0.0679 | 0.0661 | 0.0619 | 0.0598 | 0.0599 | 0.0691 | 0.0594 | 0.0621 | 0.0685 | 0.0644 | 0.0498 | 0.0575 | 0.0541 | 0.063 | 0.0592 | 0.0857 |  | 0.1 | 
N13W | 0.0639 | 0.0665 | 0.0587 | 0.0521 | 0.0491 | 0.0595 | 0.0584 |  | 0.0788 | 0.0573 |  | 0.0429 |  | 0.0648 | 0.079 | 0.0695 | 0.0524 | 0.0846 | 0.0523
H21P | 0.0519 | 0.0451 | 0.052 | 0.0524 | 0.0487 | 0.0443 | 0.0491 | 0.0104 | 0.0499 | 0.0608 | 0.052 | 0.051 | 0.0364 | 0.0517 | 0.0513 | 0.0662 |  | 0.0624 | 
T23P | 0.0405 | 0.0379 | 0.0307 | 0.0427 | 0.0413 | 0.0405 | 0.0626 |  |  | 0.0358 | 0.0514 | 0.0493 | 0.0508 |  | 0.0373 | 0.0357 | 0.0557 | 0.0403 | 
T30C | 0.0766 | 0.069 | 0.0756 | 0.0578 | 0.0571 | 0.0745 | 0.0617 |  | 0.097 | 0.0592 | 0.0452 | 0.0563 | 0.0545 | 0.0611 | 0.0548 | 0.0733 | 0.0541 | 0.134 | 0.04
T30S | 0.057 | 0.0504 | 0.0561 | 0.0622 | 0.0559 | 0.0574 | 0.0668 | 0.0516 | 0.103 | 0.0676 | 0.0532 | 0.0856 |  | 0.0667 | 0.0601 | 0.0793 | 0.0607 | 0.13 | 0.0374
S18C | 0.0902 | 0.0683 | 0.0572 |  | 0.0629 | 0.0707 | 0.054 |  | 0.113 | 0.065 | 0.0552 | 0.042 | 0.0703 |  | 0.067 | 0.0803 | 0.0384 | 0.114 | 
S16G | 0.0523 | 0.0739 | 0.0516 | 0.086 |  |  |  |  |  | 0.0672 | 0.0837 | 0.0628 |  | 0.0272 |  | 0.0594 | 0.0644 |  | 
S16R | 0.0868 | 0.0679 | 0.0593 | 0.0658 | 0.0525 | 0.0589 | 0.0613 |  | 0.0902 | 0.0601 | 0.0657 | 0.0559 |  | 0.0644 | 0.0602 | 0.0785 |  | 0.138 | 
S16V | 0.0643 | 0.0508 | 0.0564 | 0.0626 | 0.0573 | 0.0602 |  | 0.041 | 0.0726 | 0.0606 | 0.0552 | 0.0636 | 0.0615 | 0.0751 |  | 0.0772 |  |  | 0.0181
S16H | 0.0655 | 0.0718 | 0.0671 | 0.0624 | 0.0673 | 0.058 | 0.0713 |  |  | 0.0517 | 0.057 | 0.0601 | 0.0681 | 0.0667 | 0.0619 | 0.0793 | 0.0516 | 0.0998 | 
S16I | 0.0556 | 0.0914 | 0.0569 |  | 0.0577 | 0.0087 | 0.0667 |  | 0.0693 | 0.0533 | 0.0594 | 0.055 |  | 0.0617 | 0.0728 | 0.0962 | 0.0626 |  | 
S16L | 0.0523 | 0.0667 |  | 0.0601 | 0.0485 | 0.0557 | 0.0475 |  | 0.0634 | 0.0488 | 0.0559 | 0.0621 | 0.0479 | 0.0438 |  | 0.0736 | 0.0251 |  | 
S16C | 0.0434 | 0.0735 | 0.0666 | 0.0609 | 0.0634 | 0.0563 | 0.0578 | 0.0693 | 0.0729 | 0.0693 | 0.0708 | 0.0661 | 0.0578 | 0.0588 | 0.0405 | 0.0807 | 0.0567 | 0.106 | 0.0627
S16T | 0.063 | 0.0713 | 0.057 | 0.0418 | 0.0566 | 0.0627 | 0.0559 |  | 0.07 | 0.0674 | 0.0879 | 0.0541 | 0.0535 | 0.0597 | 0.0626 | 0.0673 | 0.057 | 0.0885 | 0.0646
S16E | 0.0603 | 0.0571 | 0.0626 | 0.0624 | 0.0612 | 0.075 | 0.0363 |  | 0.0834 | 0.0673 | 0.0474 | 0.0707 | 0.0627 | 0.0651 | 0.0383 | 0.0549 | 0.0577 | 0.102 | 0.0643
S16Q | 0.0677 | 0.0719 | 0.0599 | 0.0627 | 0.0603 | 0.0648 | 0.0634 | 0.0698 | 0.0848 | 0.0731 | 0.0618 | 0.0613 |  | 0.0516 | 0.0591 |  | 0.0611 | 0.116 | 0.0346
S16N | 0.052 | 0.0638 | 0.0661 | 0.0658 | 0.115 | 0.0758 |  | 0.0584 |  | 0.057 | 0.0625 | 0.0576 | 0.0477 | 0.0536 | 0.0612 | 0.0751 |  | 0.108 | 0.0679
S16M | 0.0608 | 0.0585 | 0.0592 | 0.0615 | 0.07 | 0.0567 | 0.0486 | 0.0563 | 0.0883 | 0.061 |  | 0.0302 | 0.0655 | 0.0598 | 0.0645 | 0.0985 | 0.0314 | 0.111 | 0.0679
G8K | 0.0564 | 0.0628 | 0.0698 | 0.0513 | 0.0619 |  | 0.0563 |  |  | 0.0556 | 0.0464 |  | 0.0439 | 0.0474 |  |  |  |  | 
G8D | 0.0549 |  |  |  |  |  |  |  |  |  |  |  | 0.0551 |  |  | 0.0687 | 0.0615 |  | 
